# Values joined by “and” are separate entries in the source; they are usually repeats but may differ in a detail not shown here. Equal values may be shown once. Hit rate of the full screen: of about 340,000 compounds, about 12,000 (3.5%) were called active. The inconclusive results got no clear call from the source; some entries with a clear call stand among them for comparison. The call rests on the fitted dose curve; in most records, active means well fitted inhibition curve with a large enough effect; inconclusive means small, poorly fitted or top-dose-only effect, or another doubt; inactive means no such curve, though single readings can be large or run the other way. Potencies of inconclusive entries are doubtful fits and often do not repeat.
# Assay: qHTS Assay for Inhibitors of Hepatitis C Virus (HCV)
# Conditions: Huh7.5.1 HCVcc-Cre (HCVcc is cell-culture hepatitis C virus) infection, luciferase reporter, 44 h; activity change, negative = inhibition: at 41.8 µM (top of the series) unless noted
# Summary of the method: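 After 44 h co-culture of compound, cells and HCVcc-Cre (~0.5 moi), substrate is added for 15 min at room temperature and luciferase measured over 15 sec. Cells were seeded at 1,000/well and pre-cultured 4 h.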
# On the % scale 0 is the no-effect control and ±100 the full control effect; potency means the concentration at half of the fitted maximal effect; tags describe the fitted curve by direction and shape.
SMILES,"activity change, negative = inhibition",Potency
CN(C)C1=NP(N(C)C)(N(C)C)=NC(c2ccccc2)=N1,inactive: 7.49%,–
COc1ccc(NC(=O)CCS(=O)(=O)c2ccc(Cl)cc2)cc1,inconclusive: -46.1% [inhibitor] [at 8.37 µM],–
O=C(N/C=N/OCc1ccc(Cl)cc1Cl)NOCc1c(Cl)cccc1Cl,–,"inconclusive: 31.6 µM [inhibitor, partial curve]"
Cc1ccc(S(=O)(=O)CCC(=O)OCC(=O)NC2CCS(=O)(=O)C2)cc1 (stereo not drawn),inactive: 5.72%,–
O=C(Cc1cn(Cc2cccc(Cl)c2)c2ccccc12)N1CCCC1,–,"inconclusive: 11.2 µM [inhibitor, single point]"
O=Cc1cccn1-c1cccc([N+](=O)[O-])c1,inactive: -18.2%,–
Cn1c(=O)c2c(nc(CN3CCc4ccccc4C3)n2Cc2ccc(F)cc2)n(C)c1=O,–,"inconclusive: 11.2 µM [inhibitor, partial curve, poor fit]"
COc1cc([N+](=O)[O-])ccc1NC(=O)COC(=O)CCOc1ccc(C)cc1,–,"inconclusive: 14.1 µM [inhibitor, single point]"
CCN(CC)C(=O)c1ccc(NC(=O)COc2ccc(-c3nn(C)c(=O)c4ccccc34)cc2)cc1,–,"inconclusive: 31.6 µM [inhibitor, single point]"
Cc1nn(CC(O)COc2ccc3c(c2)CCC3)c(C)c1Br (stereo not drawn),–,"inconclusive: 31.6 µM [inhibitor, single point]"
O=C(OCc1ccccc1C(F)(F)F)c1ccc(Br)c(S(=O)(=O)N2CCOCC2)c1,inactive: -27.2%,–
CCOC(=O)C1=C(C)N=C2SCCC(=O)N2[C@@H]1/C=C/c1ccccc1,inactive: -29.2%,–
O=C(Nc1cccc([N+](=O)[O-])c1)c1ccncc1,inactive: 21.6%,–
CC(C)[N+](C)(C)CC#CC(O)(c1ccccc1)c1ccccc1,inactive: -3.26%,–
O=C(COc1ccc(Cl)cc1)Nc1cccc(-c2ccc(N3CCOCC3)nn2)c1,–,"inconclusive: 8.91 µM [inhibitor, partial curve, poor fit]"
CN(C)CC(C)(C)CNS(=O)(=O)c1ccc(OC(F)(F)F)cc1,–,"inconclusive: 35.5 µM [inhibitor, single point]"
CCC(c1ccc(O)cc1)C(CC)c1ccc(O)cc1 (stereo not drawn),–,"inconclusive: 1.58 µM [inhibitor, partial curve]"
O=C(CNC(=O)[C@@H]1Cc2ccccc2CN1)NC1CCCC1,inactive: 20.2%,–
CCN(CC)CCCN(C(=O)c1ccco1)c1nc(-c2ccc(Cl)cc2)cs1,–,active: 11.2 µM
COc1ccc(C(=O)COC(=O)c2nn(C)cc2Cl)cc1,inactive: -8.83%,–
COc1ccc(CCNC(=O)CCN2C(=O)COc3ccc(C)cc32)cc1OC,–,active: 2.82 µM
CCOC(=O)C1CCN(c2cc3c(cc2NC(=O)c2cc(OC)ccc2Br)n(C)c(=O)n3C)CC1,–,"inconclusive: 11.2 µM [inhibitor, single point]"
COc1cccc(-c2nc3ccc([N+](=O)[O-])cc3o2)c1,inactive: 26.6%,–
O=c1[nH]c(=O)n(C2OC(CO)C(O)C2O)cc1F (stereo not drawn),–,"inconclusive: 0.355 µM [inhibitor, full curve, poor fit]"
CN(C)c1nc(NCc2ccccc2)nc(N/N=C/c2ccc(Cl)cc2Cl)n1,inactive: 24.3%,–

SMILES,"activity change, negative = inhibition",Potency
O=C(Nc1ccccc1)Nc1cccn(Cc2c(F)cccc2Cl)c1=O,–,"inconclusive: 25.1 µM [inhibitor, single point]"
CCCNC(=O)CCc1cc(C(C)(C)C)c(O)c(C(C)(C)C)c1,–,"inconclusive: 6.31 µM [inhibitor, full curve]"
O=C(Nc1cccc(-n2cnnn2)c1)c1cc(Cl)ccc1Cl,–,"inconclusive: 11.2 µM [inhibitor, partial curve]"
CN(CCC1CCOCC1)C(=O)c1cc(COc2c(F)cccc2F)on1,inactive: 13.2%,–
Cc1ccc(Sc2cc(C(=O)NCCCN(C)C)c3ccccc3n2)cc1,–,"inconclusive: 15.8 µM [inhibitor, single point]"
Cc1cc(C)n(CC(C)NC(=O)c2cc(COc3ccc(F)c(F)c3)on2)n1 (stereo not drawn),inactive: -29.7%,–
Cn1c(=O)c(C(=O)COC(=O)c2cc(C3CC3)nc3ccccc23)c(N)n(Cc2ccccc2)c1=O,–,active: 3.55 µM
CCOC(=O)C1=C(C)N=C2SC(C(=O)OC)=CC(=O)N2C1c1ccc(OC)cc1 (stereo not drawn),inactive: -0.87%,–
Cc1ccc(-c2cc(C(=O)Nc3cc(C)on3)c3ccccc3n2)c(C)c1,inactive: -16.4%,–
Cc1ccc(NC(=O)CN(C)C(=O)C(C)OC(=O)c2ccccc2NCCO)cc1 (stereo not drawn),–,"inconclusive: 2 µM [inhibitor, full curve]"
CCC(C)n1c(SCc2ccc([N+](=O)[O-])cc2)nc2ccsc2c1=O (stereo not drawn),–,active: 10 µM
Cc1ccc(C(C)NC(=S)NCc2ccc(F)cc2)c(C)c1 (stereo not drawn),–,"inconclusive: 31.6 µM [inhibitor, single point]"
O=c1ccc2ccc(Oc3ccc([N+](=O)[O-])cc3[N+](=O)[O-])cc2o1,–,"inconclusive: 31.6 µM [inhibitor, single point]"
CC(=O)c1ccc(-n2c(SCC(=O)c3c[nH]c4ccccc34)nc3ccccc3c2=O)cc1,–,"inconclusive: 10 µM [inhibitor, partial curve]"
O=[N+]([O-])c1nn(-c2ccc3c(c2)OCCO3)n(O)c1=NCCCO,–,active: 11.2 µM
COc1cccc(C(=O)NC2CC3CCCC(C2)N3Cc2ccc(C)cc2)c1 (stereo not drawn),inactive: -22.5%,–
Cc1nn(-c2ccccc2)c(C)c1NC(=O)COc1ccc2ccccc2c1,–,"inconclusive: 5.01 µM [inhibitor, full curve]"
CN(c1ccccc1)S(=O)(=O)c1cc(C(=O)N2CCN(c3ccccn3)CC2)ccc1Cl,–,"inconclusive: 10 µM [inhibitor, partial curve]"
NC(=O)C1CCN(C(=O)CSc2ccccn2)CC1,inactive: 11.3%,–
CCOc1nc(-c2ccncc2)nc2ccccc12,–,"inactive and inconclusive: 3.55 µM [inhibitor, full curve]"
COC(=O)C1=NNC(C(=O)c2ccco2)C1c1ccc(OC)cc1 (stereo not drawn),inactive: 4.34%,–
CCOC(=O)[C@@H]1[C@H]2COc3cc(OC)ccc3[C@H]2N2C(=O)N(c3cccc(Cl)c3)C(=O)[C@@]12C,–,"inconclusive: 3.16 µM [inhibitor, single point]"
CCOc1ccc(NS(=O)(=O)c2cc(C(=O)N(CC)CC(=O)NCc3cccs3)ccc2C)cc1,–,"inconclusive: 14.1 µM [inhibitor, partial curve]"
COc1ccc(C)cc1NC(=O)c1nnn(Cc2cc(C)ccc2C)c1N,–,"inconclusive: 2.51 µM [inhibitor, partial curve]"
CCc1ccccc1N1C(=O)NC(=O)/C(=C\c2cc(C)n(C)c2C)C1=O,inactive: 3.68%,–

SMILES,"activity change, negative = inhibition",Potency
CCc1cc2c(=O)n(CCCOC)c(SCC(=O)Nc3oc(C)c4c(C)n[nH]c(=O)c34)nc2s1,inactive: -13.7%,–
Cc1ccccc1-c1nc(CN2CCC(C(=O)NCc3ccco3)CC2)c(C)o1,–,"inconclusive: 35.5 µM [inhibitor, partial curve, poor fit]"
COc1ccc(CNC(=O)COC(=O)C2=COCCO2)cc1,inactive: 1.68%,–
CN(C)CC(CCCCC(CN(C)C)C(=O)c1ccccc1)C(=O)c1ccccc1 (stereo not drawn),–,active: 8.91 µM
CC1CN(c2ccnc3cc(Cl)ccc23)CC(C)O1 (stereo not drawn),–,"inconclusive: 20 µM [inhibitor, partial curve, poor fit]"
O=C(Cc1ccccc1F)N1CCN(CC(=O)N2CCCC2)CC1,inactive: 1.82%,–
CCOc1ccc(N2C(=O)CC(N3CCN(c4ccc(Cl)cc4)CC3)C2=O)cc1 (stereo not drawn),inactive: 5.09%,–
CN(C)C(=O)c1nc2ccccc2s1,inactive: 8.16%,–
CCC(C)(C)C1CCC(NC(=O)c2ccc(S(=O)(=O)N3CCOCC3)cc2)CC1 (stereo not drawn),–,"inconclusive: 14.1 µM [inhibitor, single point]"
COc1ccc(/C=C/C(=O)NC(=S)NNC(=O)c2cc(OC)c(OC)c(OC)c2)cc1OC,–,"inconclusive: 12.6 µM [inhibitor, partial curve]"
O=C1CC2(CCCCC2)Oc2ccccc21,inactive: 19.5%,–
O=C(Cn1c(-c2cncs2)nc2ccccc21)NC1CCCC1,–,"inconclusive: 25.1 µM [inhibitor, single point]"
Cc1onc(-c2ccccc2Cl)c1C(=O)NCc1nc(-c2ccc(C(F)(F)F)cc2)no1,–,"inconclusive: 31.6 µM [inhibitor, single point]"
CN(c1ccc([N+](=O)[O-])cc1C(N)=O)C1CCCCC1,inactive: -1.2%,–
CN(C(=O)c1cccc(NC(=O)C2CCCN(C(=O)OC(C)(C)C)C2)c1)C1CCC1 (stereo not drawn),inactive: -12.5%,–
CCOP(=O)(OCC)C(Nc1cccc([N+](=O)[O-])c1)c1ccc(N(C)C)cc1 (stereo not drawn),inactive: -1.14%,–
Cc1oc2cc(Br)c(O)c(Br)c2c1-c1ccccc1,–,"inconclusive: 11.2 µM [inhibitor, single point]"
Cc1nc(-c2ccc(NC(=O)c3ccc(Br)o3)cc2)cs1,–,"inconclusive: 31.6 µM [inhibitor, partial curve]"
COC(=O)/C(C#N)=C/c1c(N2CCN(c3ccc(OC)cc3)CC2)nc2c(C)cccn2c1=O,–,"inconclusive: 31.6 µM [inhibitor, single point]"
Cc1ccc(Cl)cc1N1CCN(S(=O)(=O)c2ccc3c(c2)CC(=O)N3C)CC1,–,"inconclusive: 11.2 µM [inhibitor, single point]"
O=C(CN1CC[n+]2c(-c3ccccc3)csc21)c1ccc(Br)cc1,–,"inconclusive: 12.6 µM [inhibitor, partial curve]"
COc1ccc(CNC(=O)Cn2nc(C)c3c(C)n(-c4ccc(C)cc4)nc3c2=O)cc1OC,–,"inconclusive: 10 µM [inhibitor, partial curve]"
COc1cccc(/C=C2\SC(=O)N(CCC(=O)N3CCCCC3CCO)C2=O)c1 (stereo not drawn),–,"inconclusive: 15.8 µM [inhibitor, single point]"

# Source: PubChem BioAssay AID651820 (National Center for Advancing Translational Sciences (NCATS), 2012)
